In PubChem BioAssay AID1508624 (National Center for Advancing Translational Sciences (NCATS), 2021):
Values joined by “and” are separate entries in the source; they are usually repeats but may differ in a detail not shown here. Identical values can stand only once. In all, about 48,000 compounds went through this assay and about 120 (0.25%) were called active. Another 4% or so got no clear call; they are omitted. Calls follow the shape of the dose curve; as a rule, active = well fitted activation curve with a large enough effect; inconclusive = small, poorly fitted or top-dose-only effect, or another doubt; inactive = no such curve, though single readings can be large or run the other way. Some of the results follow.

Assay: Primary qHTS for Identification of Small Molecule Activators of Huntingtin-Antisense Promoter Activity; also: nearly all actives have a fitted effect of over 55% in size
Conditions: HEK293 HTT-AS promoter firefly luciferase reporter, 24 h; at 57.5 µM (top of the series) unless noted
Source text: Assay Provider: Russell L. Margolis M.D.
Department Neurology, Johns Hopkins University School of Medicine, Baltimore, MD
Huntington's Disease (HD) is a neurodegenerative disorder caused by a CAG repeat expansion in exon 1 of huntingtin (HTT). While there are currently no disease-modifying treatments for HD, recent efforts have focused on development of nucleotide-based therapeutics to lower HTT expression. As an alternative to siRNA or oligonucleotide methods, we hypothesized that suppression of HTT expression might be accomplished by small molecules that either (1) directly decrease HTT expression by suppressing HTT promoter activity or (2) indirectly decrease HTT expression by increasing the promoter activity of HTT-AS, the gene antisense to HTT that appears to inhibit expression of HTT.
We developed and employed a high throughput screen for modifiers of HTT and HTT-AS promoter activity using luminescent reporter HEK293 cells; of the 52,041 compounds tested, we identified 898 replicable hits. We used a rigorous stepwise approach to assess compound toxicity and the capacity of the compounds to specifically lower huntingtin protein in 5 different cell lines, including HEK293 cells, HD lymphoblastoid cells, mouse primary neurons, HD iPSCs differentiated into cortical-like neurons, and HD hESCs. We found no compounds which were able to lower huntingtin without lowering cell viability in all assays, though the potential efficacy of a few compounds at non-toxic doses could not be excluded.
SEQUENCE No. (1, 2, 3, etc.); […] (e.g., Cells, Incubation, Reagent, etc.); VALUE and DESCRIPTION.
1; Reagent; 4 uL; 2,500 Hek293 luciferase reporter cells per wells
3; Compound; 23 nL; Control inhibitor / compound library
5; Reagent; 2.5 uL; Firefly Luc reagent; Dual-Glo Luciferase Reporter Assay System (Promega)
6; Time; 10 min; room temperature incubation
7; Detection; Luminescence; FLuc
NOTES (numbers refer to sequence above)
1; High-throughput screening, measuring luminescence from a Hek293 luciferase reporter, was performed in 1,536 well white-walled tissue-culture treated plates. 2,500 cells were plated in 4 µL of Opti-MEM per well using a Multidrop Combi Reagent Dispenser (ThermoFisher).
2; Assay plates were cultured for 24 hours.
3; Control inhibitor (PTC124; final concentration of 50 uM) and compound library (at final concentrations of 460 nM - 57.5 uM) were added to the assay plate using the Kalypsis Pintool Robotic System equipped with 1536 pinheads.
4; Cells were then incubated for 24 hours at 37 degrees C prior to luminescence measurements.
5; In all cases, luminescence was measured using the Dual-Glo Luciferase Reporter Assay System (Promega) following the manufacturer's instructions.
6; Room temperature incubation.
7; Luminescence signal was obtained using the PerkinElmer ViewLux plate reader. Results were normalized to vehicle control (0% activity) and zero RLU (-100% activity).

SMILES	activity change, positive = activation
COP(=S)(OC)Oc1ccc(S(N)(=O)=O)cc1	inactive: 1.01%
COc1cccc2c1C(=O)c1c(O)c3c(c(O)c1C2=O)C[C@@](O)(C(=O)CO)CC3OC1CC(N2CCOC(OC)C2)C(O)C(C)O1 (stereo not given in full)	inactive: -41.9%
O=C(O)CCCCCCNC1c2ccccc2CCc2ccccc21	inactive: -9.32%
CCOc1ccc(CN(CCc2ccc3c(c2)OCO3)Cc2ccc(OC)c(Br)c2)cc1	inactive: -12.9% [at 57.5 µM, percent change from vehicle, -100% = no light]
CCOc1ccc2nc(NC(=O)c3cccn(Cc4ccccc4Cl)c3=O)sc2c1	inactive: -9.43% [at 57.5 µM, percent change from vehicle, -100% = no light]
Cc1nc2ccccc2c(=O)n1-c1ccccc1Cl	inactive: -26.6% [at 116 µM]
Cc1ccccc1CN1C(=O)C(C)N=C(c2ccccc2)c2ccccc21 (stereo not given)	inactive: -27.2%
CCN(CC)Cc1nccn1-c1ccc([N+](=O)[O-])cc1C(=O)c1ccccc1Cl	inactive: -18.5%
[N-]=[N+]=CC(=O)OC[C@H](N)C(=O)O	inactive: -8.82%
CC1NCCOC1c1ccccc1 (stereo not given)	inactive: -6.63%
CCc1ccc(OCC(=O)N2CCN(CCc3ccncc3)CC2)cc1	inactive: -15.9%
CCCN1CCC[C@@H]2Cc3[nH]ncc3C[C@H]21	inactive: -7.74%
CCC(C)(C)c1ccc(O)cc1	inactive: 3.16% [at 57.5 µM, percent change from vehicle, -100% = no light]
C#CC(O)(C=CCl)CC (stereo not given)	inactive: -0.0368%
C[C@@H]1CC[C@H]2[C@@H](C)C(=O)O[C@@H]3O[C@@]4(C)CC[C@H]1[C@]32OO4	inactive: -15%
CCCN1CCO[C@@H]2c3cc(O)ccc3OC[C@@H]21	inactive: 1.71%
C[C@@H]1O[C@@H](O[C@H]2C[C@@H](O)[C@]3(CO)[C@H]4[C@H](O)C[C@]5(C)[C@@H](C6=CC(=O)OC6)CC[C@]5(O)[C@@H]4CC[C@]3(O)C2)[C@H](O)[C@H](O)[C@H]1O	inactive: -43.9%
COc1cc(CCN)cc(OC)c1OC	inactive: -6.55% [at 116 µM]

SMILES	activity change, positive = activation
C[C@@H](N)[C@@H](O)c1ccccc1	inactive: -1.78%
ClC1=C(Cl)[C@]2(Cl)[C@@H]3[C@@H]4C[C@@H]([C@H]5O[C@@H]45)[C@@H]3[C@@]1(Cl)C2(Cl)Cl	inactive: -14.2% [at 116 µM]
CCC1(c2ccc(N)cc2)CCC(=O)NC1=O (stereo not given)	inactive: -5.37% and inactive: -16.4%
Cc1ccc(C(=O)Nc2ccccc2)cc1S(=O)(=O)N1CCCC1	inactive: 7%
CNC(C)Cc1ccc2c(c1)OCO2 (stereo not given)	inactive: -4.47% [at 116 µM]
O=C(CCCCl)c1ccc(F)cc1	inactive: 11.4%
Cc1ccc(C(C)C)c(OCC(=O)N2CCN(CCc3ccncc3)CC2)c1	inactive: -6.85% [at 57.5 µM, percent change from vehicle, -100% = no light]
CN(C)C(=O)Oc1cc(OC(=O)N(C)C)cc(C(O)CNC(C)(C)C)c1 (stereo not given)	inactive: -19.2%
NCCc1ccc(O)cc1	inactive: 0.336%
C[C@@H]1[C@H](O)[C@@H](C)C=CC=CCCC=CC=CC=CC=C[C@H](O[C@H]2O[C@@H](C)[C@H](O)[C@@H](N)[C@@H]2O)CC2O[C@](O)(C[C@@H](O)[C@H](O)CC[C@@H](O)C[C@@H](O)C[C@@H](O)CC(=O)O[C@H]1C)C[C@H](O)[C@H]2C(=O)O	inactive: -12%
COc1ccc(OCC(=O)N2CCN(Cc3cc(=O)n4nc(-c5ccc(OC)cc5)sc4n3)CC2)cc1	inactive: -18.1%
CC(C)c1ccc(OCC(=O)N2CCN(CCc3ccccn3)CC2)cc1	inactive: 2.56% [at 11.5 µM, percent change from vehicle, -100% = no light]
Cc1ccc(OCC(=O)N2CCN(CCc3ccncc3)CC2)cc1	inactive: -0.521%
COc1ccc(OCC(=O)N2CCN(Cc3ccc(SC)cc3)CC2)cc1	inactive: -60.1%
COc1ccc2c(c[n+](C)c3c4cc5c(cc4ccc23)OCO5)c1OC	inactive: -42.6%
O=C(O)c1ccc2[nH]cc(CCCCN3CC=C(c4ccccc4)CC3)c2c1	inactive: -11.5%
Cc1ccccc1-n1c(/C=C/c2ccc(N(C)C)cc2)nc2ccccc2c1=O	inactive: -20.4%
